# Measurements as given in the supplement of paper PMC12217912.
# This is one part of the list. Sequences were assembled here from the parent chain. Inactive controls read about 0.05.
# B1: TEV protease; numbered along this chain (parent)
# chain: MGESLFKGPRDYNPISSSICHLTNESDGHTTSLYGIGFGPFIITNKHLFRRNNGTLVVQSLHGVFKVKDTTTLQQHLVDGRDMIIIRMPKDFPPFPQKLKFREPQREERICLVTTNFQTKSMSSMVSDTSCTFPSGDGIFWKHWIQTKDGQCGSPLVSTRDGFIVGIHSASNFTNTNNYFTSVPKNFMELLTNQEAQQWVSGWRLNADSVLWGGHKVFMVKPEEPFQPVKEATQL
# Variants of: B1
# Test: raw area under fraction-flipped curve 0-4 h after induction (AUC4h, not background-subtracted), DNA-recorder readout of cleavage of the substrate (dimensionless); higher = more cleavage of the substrate by the protease variant
# Conditions: temperature: 34 °C; time window: 0-4 h after rhamnose induction
# Method: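 In vivo DNA recorder in E. coli TOP10(DE3) ΔrhaA at 34 °C. Each TEVp single-site mutant (parent TEVp 0) is paired with a single-site variant of the 7-mer TEVs (canonical ENLYFQ|S). The substrate sits between flexible linkers in a Bxb1-sfGFP-TEVs-SsrA fusion, so cleavage stabilises Bxb1 and speeds flipping of a recombination array, read by NGS. The value is the raw area under the fraction-flipped curve over 0-4 h after rhamnose induction (AUC4h), with ≥20 reads per time point. It is not background-subtracted; inactive controls average about 0.047.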
# 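Note: Bxb1 expression induced with 0.2% (w/v) L-rhamnose at OD600 near 0.5, cultures sampled hourly, flipped fraction per protease–substrate barcode pair counted by paired-end Illumina sequencing.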
Variant,area with substrate ENLYAQS,area with substrate ENLYDQS,area with substrate ENLYEQS,area with substrate ENLYGQS,area with substrate ENLYHQS,area with substrate ENLYIQS,area with substrate ENLYKQS,area with substrate ENLYMQS,area with substrate ENLYNQS,area with substrate ENLYPQS,area with substrate ENLYQQS,area with substrate ENLYVQS,area with substrate ENLYYQS,area with substrate ENLYLQS,area with substrate ENLYRQS,area with substrate ENLYSQS,area with substrate ENLYTQS,area with substrate ENLYWQS,area with substrate ENLYCQS
MGESLFKGPRDYNPISSSICHLTNESDGHTTSLYGIGFGPFIITNKHLFRRNNGTLVVQSLHGVFKVKDTTTLQQHLVDGRDMKIIRMPKDFPPFPQKLKFREPQREERICLVTTNFQTKSMSSMVSDTSCTFPSGDGIFWKHWIQTKDGQCGSPLVSTRDGFIVGIHSASNFTNTNNYFTSVPKNFMELLTNQEAQQWVSGWRLNADSVLWGGHKVFMVKPEEPFQPVKEATQL [I84K],0.0625,0.0552,0.0571,0.061,0.0632,0.0481,0.057,0.0473,0.0581,0.0498,0.0547,0.0535,0.0584,,,,,,
MGESLFKGPRDYNPISSSICHLTNESDGHTTSLYGIGFGPYIITNKHLFRRNNGTLVVQSLHGVFKVKDTTTLQQHLVDGRDMIIIRMPKDFPPFPQKLKFREPQREERICLVTTNFQTKSMSSMVSDTSCTFPSGDGIFWKHWIQTKDGQCGSPLVSTRDGFIVGIHSASNFTNTNNYFTSVPKNFMELLTNQEAQQWVSGWRLNADSVLWGGHKVFMVKPEEPFQPVKEATQL [F41Y],0.0659,0.0524,0.0516,0.0482,0.075,,0.0036,0.0662,,0.0719,0.08,0.122,0.0692,0.0867,0.0658,0.0722,0.0717,0.0649,
MGESLFKGPRDYNPISSSICHLTNESDGHTTSLYGIGFGPFIITNKHLFRRNNGTLVVQSLHGVFKVKDTTTLQQHLVDGRDMIIIRMPKDFPPFPQKLKFRNPQREERICLVTTNFQTKSMSSMVSDTSCTFPSGDGIFWKHWIQTKDGQCGSPLVSTRDGFIVGIHSASNFTNTNNYFTSVPKNFMELLTNQEAQQWVSGWRLNADSVLWGGHKVFMVKPEEPFQPVKEATQL [E103N],0.0786,0.0613,,,0.0894,,,,,,0.0812,,0.0654,,,,,,0.073
MGESLFKGPRDYNPISSSICHLTNESDGHTTSTYGIGFGPFIITNKHLFRRNNGTLVVQSLHGVFKVKDTTTLQQHLVDGRDMIIIRMPKDFPPFPQKLKFREPQREERICLVTTNFQTKSMSSMVSDTSCTFPSGDGIFWKHWIQTKDGQCGSPLVSTRDGFIVGIHSASNFTNTNNYFTSVPKNFMELLTNQEAQQWVSGWRLNADSVLWGGHKVFMVKPEEPFQPVKEATQL [L33T],0.0742,,0.0687,,,0.0745,0.0558,,0.0558,,0.0671,0.0835,0.0605,,0.0494,,,,
MGESLFKGPRDYNPISSSICHLTNESDGHTTSLYGIGFGPFIITNKHLFRRNNGTLVVQSLHGVFKVKDTTTLQQHLVDGRDMIIIRMPKDFPPFPQKLKFVEPQREERICLVTTNFQTKSMSSMVSDTSCTFPSGDGIFWKHWIQTKDGQCGSPLVSTRDGFIVGIHSASNFTNTNNYFTSVPKNFMELLTNQEAQQWVSGWRLNADSVLWGGHKVFMVKPEEPFQPVKEATQL [R102V],0.0494,0.0514,0.0389,0.0626,0.0293,0.0469,0.0624,0.0381,0.0462,0.0737,,,0.0659,0.0493,0.0536,0.0493,0.0402,0.0354,
MGESLFKGPRDYNPISSSICHLTNESDGHTTSLYGIGFGPFIITNKHLFRRNNGTLVVQSLHGVFKVKDTTTLQQHLVDGRDMIIIRMPKDFPPFPQKLKFREPQREERICLVTTNFQTKSMSSMVSDTSCTFPSGDGIFWKHWIQTKDGQCGSPLVSTRDGFIVGIHSASNFTNTNNYFTSVPKNFMELLTNDEAQQWVSGWRLNADSVLWGGHKVFMVKPEEPFQPVKEATQL [Q194D],0.085,,0.0682,,0.0699,,,0.0849,0.0764,0.0727,,0.141,0.0462,0.105,0.0539,,,0.0916,0.0839
MGESLFKGPRDYNPISSSICHLTNESDGHTTSLYGIGFGPFIITNKHLFRRNNGTLVVQSLHGVFKVKDTTTLQQHLVDGRDMIIIRMPKDFPPFPQKLKFREPQREERICLVTTNFQTKSMSSMVSDTSCTFPSGDGIFWKHWIQTKDGQCGSPLVSTRDGFIVGIHSASNFTNTNNYFTSVPKNFMELLTNQEAQQWVSGWRLNADSVLWGGHKVFMVKPEEPFQPVKDATQL [E231D],0.0852,0.0663,0.0529,0.0685,,,,0.178,0.0637,,,,0.0807,,,0.0861,,,
MGESLFKGPRDYNPISSSICHLTNESDGHTTSLYGIGFGPFIITNKHLFRRNNGTLVVQSLHGVFKVKDTTTLQQHLVDGRDMIIIRMPKDFPPFPQKLKFREPQREERICLVTTNIQTKSMSSMVSDTSCTFPSGDGIFWKHWIQTKDGQCGSPLVSTRDGFIVGIHSASNFTNTNNYFTSVPKNFMELLTNQEAQQWVSGWRLNADSVLWGGHKVFMVKPEEPFQPVKEATQL [F117I],0.0951,,0.0516,0.0672,,0.0986,0.055,0.0999,,,0.0728,,,,0.061,0.0784,0.0608,,0.109
MGESLFKGPRDYNPISSSICHLTNESDGHTTSLYGIGFGPFIITNKHLFRRNNGTLVVQSLHGVFKVKDTTTLQQHLVDGRDMISIRMPKDFPPFPQKLKFREPQREERICLVTTNFQTKSMSSMVSDTSCTFPSGDGIFWKHWIQTKDGQCGSPLVSTRDGFIVGIHSASNFTNTNNYFTSVPKNFMELLTNQEAQQWVSGWRLNADSVLWGGHKVFMVKPEEPFQPVKEATQL [I85S],0.0667,,0.0466,0.0541,0.0636,,0.0582,,0.0712,0.0533,0.0589,0.0461,0.0402,,0.0418,0.0584,0.0554,0.0502,
MGESLFKGPRDYNPISSSICHLTNESDGHTTSLYGIGFGPFIITNKHLFRRNNGTLVVQSLHGVFKVKDTTTLQQHLVDGRDMIIIRMPKDFPPFPQKLKFREPQREERICLVTTNFQTKSMSSMVSDTSCTFPSGDGIFWKHWIQTKDGQCGSPLVSTRDGFIVGIHSASNFTNTNNYFTSVPKNFMELLTNQEAQQWVSGWRLNADSVLWEGHKVFMVKPEEPFQPVKEATQL [G213E],0.058,,0.0421,0.0674,0.0595,,,,,,0.0719,0.0396,,,0.059,,,0.0707,
